PMC4336329 (PLoS ONE, 2015)
Among all 310,000 compounds or so, about 14,000 (4.5%) showed an effect of 50% or more. The effect is printed as a negative number. The list shows a part of the results.

molecular target: human ether-à-go-go-related gene (hERG) potassium channel (human, UniProt Q12809); experiment: primary screen, population patch clamp on CHO cells stably expressing hERG
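Also: peak tail current of the secondary pulse compared with the same well before compound.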

human ether-à-go-go-related gene (hERG) potassium channel, sequence (Q12809 whole entry, looked up): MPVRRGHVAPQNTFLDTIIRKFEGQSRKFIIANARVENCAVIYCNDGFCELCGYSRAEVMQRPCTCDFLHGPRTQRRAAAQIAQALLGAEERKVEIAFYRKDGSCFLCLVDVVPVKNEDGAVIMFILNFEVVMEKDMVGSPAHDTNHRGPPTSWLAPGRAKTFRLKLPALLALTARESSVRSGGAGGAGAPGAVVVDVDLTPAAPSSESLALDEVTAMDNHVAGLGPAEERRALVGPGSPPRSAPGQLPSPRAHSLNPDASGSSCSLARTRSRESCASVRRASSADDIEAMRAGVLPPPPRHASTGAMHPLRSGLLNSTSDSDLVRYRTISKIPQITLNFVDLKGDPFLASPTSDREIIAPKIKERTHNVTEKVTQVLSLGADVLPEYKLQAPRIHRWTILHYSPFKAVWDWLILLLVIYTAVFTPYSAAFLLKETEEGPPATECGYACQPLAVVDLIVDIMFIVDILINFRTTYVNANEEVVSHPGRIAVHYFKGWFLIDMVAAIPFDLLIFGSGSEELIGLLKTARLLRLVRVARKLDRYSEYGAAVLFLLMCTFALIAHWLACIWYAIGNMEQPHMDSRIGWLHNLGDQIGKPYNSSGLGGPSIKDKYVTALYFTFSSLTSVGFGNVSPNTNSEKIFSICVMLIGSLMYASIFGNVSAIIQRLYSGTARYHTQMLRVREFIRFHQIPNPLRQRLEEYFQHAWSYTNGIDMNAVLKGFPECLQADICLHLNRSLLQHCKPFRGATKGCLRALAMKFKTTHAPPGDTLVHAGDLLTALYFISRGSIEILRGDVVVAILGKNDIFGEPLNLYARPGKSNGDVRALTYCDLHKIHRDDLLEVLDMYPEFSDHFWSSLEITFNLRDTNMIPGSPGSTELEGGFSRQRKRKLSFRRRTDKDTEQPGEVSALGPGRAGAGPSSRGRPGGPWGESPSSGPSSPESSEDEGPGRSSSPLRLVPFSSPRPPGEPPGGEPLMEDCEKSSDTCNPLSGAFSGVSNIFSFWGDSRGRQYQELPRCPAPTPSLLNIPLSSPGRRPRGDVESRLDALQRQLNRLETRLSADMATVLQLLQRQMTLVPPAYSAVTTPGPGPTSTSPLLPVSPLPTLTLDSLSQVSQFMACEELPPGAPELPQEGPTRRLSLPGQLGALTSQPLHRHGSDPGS

`CC(C)(C)NC(=O)Nc1ccc(Br)cc1` was tested. Which “hERG current change (%, negative = inhibition) at 10uM” value did it give?
Its value is 9.71%.

How did the “hERG current change (%, negative = inhibition) at 10uM” value turn out when `CCC/C(=N\NC(=O)Cc1csc(N2CCOCC2)n1)c1ccccc1` was run?
The value was -13.5%.

`Cc1nnc(NC(=O)CSc2nccn2-c2cccc(C)c2C)s1` was tested. Which “hERG current change (%, negative = inhibition) at 10uM” value did it give?
The value was 8.58%.

`Cc1ccc(CNC(=O)C2CCN(S(=O)(=O)c3ccc4c(c3)CC(C)N4C(=O)C3CCC3)CC2)o1` (stereo not drawn) was tested. Which “hERG current change (%, negative = inhibition) at 10uM” value did it give?
Its value is -5.01%.

Which “hERG current change (%, negative = inhibition) at 10uM” value does the source give for `COc1c2occc2c(OC)c2c(=O)cc(C(F)(F)F)oc12` here?
The value was 5.02%.

Which “hERG current change (%, negative = inhibition) at 10uM” value does the source give for `COc1cc(-c2cc(C(=O)Nc3ccccc3N3CCOCC3)c3ccccc3n2)cc(OC)c1OC` here?
Its value is -8.6%.

For `Cc1sc(NC(=O)CSc2nc(N)cc(N)n2)c(C#N)c1C`, which “hERG current change (%, negative = inhibition) at 10uM” value is on record?
The value was 10.5%.

How did the “hERG current change (%, negative = inhibition) at 10uM” value turn out when `COc1ccc(S(=O)(=O)N2CCSCC2)cc1C(N)=O` was run?
Its value is 20%.

Which “hERG current change (%, negative = inhibition) at 10uM” value does the source give for `Cc1csc(NC(=O)C2=NN(c3ccccc3)C(=O)CC2)n1` here?
Its value is 13.6%.

`C=CCc1cc(Cl)ccc1OCCOCCNC(C)CC.O=C(O)C(=O)O` (stereo not drawn) was tested. Which “hERG current change (%, negative = inhibition) at 10uM” value did it give?
Its value is -69.2%.

Which “hERG current change (%, negative = inhibition) at 10uM” value does the source give for `O=C(Nc1nnc(C2=COCCO2)o1)c1ccc(Cc2ccccc2)cc1` here?
The value was -10.2%.

For `C=CCOC(=O)C1CC=CCC1C(=O)Oc1ccc(F)cc1F` (stereo not drawn), which “hERG current change (%, negative = inhibition) at 10uM” value is on record?
The value was -18%.

With `O=[N+]([O-])c1ccc(N2CCN(S(=O)(=O)c3ccccc3[N+](=O)[O-])CC2)cc1NCc1cccnc1` as the molecule, how does the “hERG current change (%, negative = inhibition) at 10uM” value read?
Its value is -8.91%.

`CN(CC(=O)Nc1cccc2ccccc12)C(=O)c1ccc(F)cc1F` was tested. Which “hERG current change (%, negative = inhibition) at 10uM” value did it give?
Its value is 3.89%.

With `O=C(N/N=C\c1ccc(F)cc1)c1csnn1` as the molecule, how does the “hERG current change (%, negative = inhibition) at 10uM” value read?
Its value is 1.56%.

`CCC1CCCCN1C(=O)COC(=O)c1cc(C)nc2ccccc12` (stereo not drawn) was tested. Which “hERG current change (%, negative = inhibition) at 10uM” value did it give?
Its value is -9.3%.

With `Cc1nnn(C23CC4CC(CC(C4)C2)C3)n1` as the molecule, how does the “hERG current change (%, negative = inhibition) at 10uM” value read?
The value was 7.98%.

`COCCn1c(SCC#N)nnc1-c1ccccc1` was tested. Which “hERG current change (%, negative = inhibition) at 10uM” value did it give?
Its value is -6.95%.

`Cc1ccc(C)c(Cn2c(=O)n(CCCC(=O)NCc3ccco3)c(=O)c3sccc32)c1` was tested. Which “hERG current change (%, negative = inhibition) at 10uM” value did it give?
The value was -8.02%.

Which “hERG current change (%, negative = inhibition) at 10uM” value does the source give for `O=S(=O)(c1ccccc1)N1CCN(c2ccnc3cc(Cl)ccc23)CC1` here?
Its value is -84%.

`O=C(CCSc1ccccc1)NCCSCc1ccco1` was tested. Which “hERG current change (%, negative = inhibition) at 10uM” value did it give?
The value was -24.9%.

`CC1CCCN(Cc2c(O)ccc3c4c(c(=O)oc23)CCCC4)C1` (stereo not drawn) was tested. Which “hERG current change (%, negative = inhibition) at 10uM” value did it give?
Its value is -9.99%.

For `COc1ccc(C(=O)/C=C/c2ccc(O)cc2)c(O)c1CC=C(C)C`, which “hERG current change (%, negative = inhibition) at 10uM” value is on record?
Its value is -7.26%.

`COc1cc2c(cc1OC)/C(=C/C(=O)c1ccc(OC)c([N+](=O)[O-])c1)NCC2` was tested. Which “hERG current change (%, negative = inhibition) at 10uM” value did it give?
Its value is 0.426%.

With `Cc1noc(C)c1C(=O)N1CCN(c2ccc(OCc3ccccc3)cc2)CC1` as the molecule, how does the “hERG current change (%, negative = inhibition) at 10uM” value read?
Its value is 5.74%.

How did the “hERG current change (%, negative = inhibition) at 10uM” value turn out when `N#Cc1nc(Cc2cccc3ccccc23)oc1NCc1ccc(F)cc1` was run?
The value was 22.5%.

How did the “hERG current change (%, negative = inhibition) at 10uM” value turn out when `CCCCCCSc1nsc(NC(=O)CC(C)C)n1` was run?
The value was 6.01%.

With `CCn1ncc(C2=NOC(C(=O)Nc3cnn(C45CC6CC(CC(C6)C4)C5)c3)C2)c1C` (stereo not drawn) as the molecule, how does the “hERG current change (%, negative = inhibition) at 10uM” value read?
The value was -21.8%.

Which “hERG current change (%, negative = inhibition) at 10uM” value does the source give for `CC1(C)CC(=O)c2cnc(NC(=O)Cc3ccc(Cl)cc3)nc2C1` here?
The value was -10.8%.

`CCCCOP(=O)(c1ccc(N(C)C)cc1)C(O)c1ccc(C(C)C)cc1` (stereo not drawn) was tested. Which “hERG current change (%, negative = inhibition) at 10uM” value did it give?
The value was -13%.

Which “hERG current change (%, negative = inhibition) at 10uM” value does the source give for `Cc1cc(Cl)ccc1OCCCC(=O)NCCc1nnc2ccccn12` here?
The value was -18.4%.

`Cc1ccc(CNS(=O)(=O)c2c(C(=O)N3CCCCCC3)c(C)n(C)c2C)cc1` was tested. Which “hERG current change (%, negative = inhibition) at 10uM” value did it give?
The value was 10.9%.

With `CCOC(=O)c1ccc(NC(=O)CSc2nnc(CNc3ccc(OC)cc3)n2C)cc1` as the molecule, how does the “hERG current change (%, negative = inhibition) at 10uM” value read?
Its value is -2.57%.

With `Cc1ccc(-c2noc(CSc3nnc(-c4ccccc4)n3C)n2)cc1` as the molecule, how does the “hERG current change (%, negative = inhibition) at 10uM” value read?
Its value is -3.5%.

How did the “hERG current change (%, negative = inhibition) at 10uM” value turn out when `COC(=O)CCCC1=CC2=CC(=O)C(C)(OC(=O)c3cccs3)C(=O)C2=CN1CC(C)C` (stereo not drawn) was run?
Its value is -5.68%.

With `Cc1cc2occ(CC(=O)NNC(=O)c3ccccc3)c2cc1C` as the molecule, how does the “hERG current change (%, negative = inhibition) at 10uM” value read?
The value was 8.99%.

Which “hERG current change (%, negative = inhibition) at 10uM” value does the source give for `C/C(CCN1CCCCc2nc(C)c(C)cc21)=N\O[C@@H](C)CN1CCCCc2nc(C)c(C)cc21` here?
The value was -48.4%.

For `COc1ccc(OC)c(C(O)CNC(=O)CN)c1.Cl` (stereo not drawn), which “hERG current change (%, negative = inhibition) at 10uM” value is on record?
Its value is 0.471%.

With `COc1ccc(C)cc1NS(=O)(=O)c1cccc2nonc12` as the molecule, how does the “hERG current change (%, negative = inhibition) at 10uM” value read?
The value was -10.7%.

How did the “hERG current change (%, negative = inhibition) at 10uM” value turn out when `Cc1ccnc2nc(C(=O)OC(C)C(=O)NCc3ccccc3)nn12` (stereo not drawn) was run?
The value was -4.57%.

How did the “hERG current change (%, negative = inhibition) at 10uM” value turn out when `COc1ccc(C2CC(c3ccc(Cl)cc3Cl)Nc3nc(N)nn32)cc1OC` (stereo not drawn) was run?
Its value is -18.7%.

Which “hERG current change (%, negative = inhibition) at 10uM” value does the source give for `Cc1nn(CCCC(=O)Nc2cnn(Cc3ccc(F)cc3)c2)c(C)c1[N+](=O)[O-]` here?
The value was -1.27%.

`CS(=O)(=O)N(CCc1ccccc1)CC(=O)N1CCN(c2ccc(F)cc2)CC1` was tested. Which “hERG current change (%, negative = inhibition) at 10uM” value did it give?
The value was -33.3%.

Which “hERG current change (%, negative = inhibition) at 10uM” value does the source give for `Cc1sc2nc(CSCC(=O)Nc3ccccc3C#N)[nH]c(=O)c2c1C` here?
The value was 2.5%.

`COC(=O)COc1ccc(NC(=O)C(c2ccccc2)c2ccccc2)cc1` was tested. Which “hERG current change (%, negative = inhibition) at 10uM” value did it give?
The value was 3.4%.

Which “hERG current change (%, negative = inhibition) at 10uM” value does the source give for `CCNS(=O)(=O)c1ccc(CCC(=O)NCc2ccc3c(c2)OCO3)cc1` here?
The value was -0.364%.

How did the “hERG current change (%, negative = inhibition) at 10uM” value turn out when `CCNc1nc(SCC(=O)Nc2ccccc2)nc(N2CCOCC2)n1` was run?
Its value is 8.03%.

For `Cc1cc([N+](=O)[O-])cnc1N1CCOCC1`, which “hERG current change (%, negative = inhibition) at 10uM” value is on record?
Its value is 11.8%.

With `COC(=O)C(C)Sc1nc2ccsc2c(=O)n1Cc1ccccc1` (stereo not drawn) as the molecule, how does the “hERG current change (%, negative = inhibition) at 10uM” value read?
The value was -39.1%.

How did the “hERG current change (%, negative = inhibition) at 10uM” value turn out when `CC(O)CNC(=O)Cc1cc(=O)[nH]c(=O)[nH]1` (stereo not drawn) was run?
Its value is 23.9%.

Which “hERG current change (%, negative = inhibition) at 10uM” value does the source give for `Cc1occc1C(=O)NNS(=O)(=O)c1ccc(Cl)cc1` here?
Its value is 7.64%.

For `Cc1cc(C(F)(F)F)n2ncc(-c3ccc(F)cc3)c2n1`, which “hERG current change (%, negative = inhibition) at 10uM” value is on record?
The value was 14.1%.

For `O=C(Cn1ncc2c([nH]c3ccccc32)c1=O)NCCc1ccccc1`, which “hERG current change (%, negative = inhibition) at 10uM” value is on record?
Its value is 3.06%.

With `CCN(C(=O)COC(=O)c1c(C)nsc1NC)c1ccccc1` as the molecule, how does the “hERG current change (%, negative = inhibition) at 10uM” value read?
The value was -11.9%.

Which “hERG current change (%, negative = inhibition) at 10uM” value does the source give for `CC(C)Oc1ccccc1/C=N/NC(=O)c1ccccc1Cl` here?
The value was -12.9%.

Which “hERG current change (%, negative = inhibition) at 10uM” value does the source give for `CCS(=O)(=O)N1CCN=C1SCc1cccnc1` here?
Its value is 14.5%.

How did the “hERG current change (%, negative = inhibition) at 10uM” value turn out when `Cc1cccc(-n2ncc3c2CCCC3NC(=O)CN2CCOC2=O)c1C` (stereo not drawn) was run?
Its value is 21.4%.
